# Measurements taken from paper PMC4336329 (PLoS ONE, 2015).
# In all, about 310,000 compounds went through this assay and about 14,000 (4.5%) showed an effect of 50% or more. Effects have a minus sign here. The list shows a part of the results.
# Target: human ether-à-go-go-related gene (hERG) potassium channel (human, UniProt Q12809)
# Test: primary screen, population patch clamp on CHO cells stably expressing hERG
# 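Further: peak tail current of the secondary pulse compared with the same well before compound.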
# human ether-à-go-go-related gene (hERG) potassium channel, sequence (Q12809 whole entry, looked up): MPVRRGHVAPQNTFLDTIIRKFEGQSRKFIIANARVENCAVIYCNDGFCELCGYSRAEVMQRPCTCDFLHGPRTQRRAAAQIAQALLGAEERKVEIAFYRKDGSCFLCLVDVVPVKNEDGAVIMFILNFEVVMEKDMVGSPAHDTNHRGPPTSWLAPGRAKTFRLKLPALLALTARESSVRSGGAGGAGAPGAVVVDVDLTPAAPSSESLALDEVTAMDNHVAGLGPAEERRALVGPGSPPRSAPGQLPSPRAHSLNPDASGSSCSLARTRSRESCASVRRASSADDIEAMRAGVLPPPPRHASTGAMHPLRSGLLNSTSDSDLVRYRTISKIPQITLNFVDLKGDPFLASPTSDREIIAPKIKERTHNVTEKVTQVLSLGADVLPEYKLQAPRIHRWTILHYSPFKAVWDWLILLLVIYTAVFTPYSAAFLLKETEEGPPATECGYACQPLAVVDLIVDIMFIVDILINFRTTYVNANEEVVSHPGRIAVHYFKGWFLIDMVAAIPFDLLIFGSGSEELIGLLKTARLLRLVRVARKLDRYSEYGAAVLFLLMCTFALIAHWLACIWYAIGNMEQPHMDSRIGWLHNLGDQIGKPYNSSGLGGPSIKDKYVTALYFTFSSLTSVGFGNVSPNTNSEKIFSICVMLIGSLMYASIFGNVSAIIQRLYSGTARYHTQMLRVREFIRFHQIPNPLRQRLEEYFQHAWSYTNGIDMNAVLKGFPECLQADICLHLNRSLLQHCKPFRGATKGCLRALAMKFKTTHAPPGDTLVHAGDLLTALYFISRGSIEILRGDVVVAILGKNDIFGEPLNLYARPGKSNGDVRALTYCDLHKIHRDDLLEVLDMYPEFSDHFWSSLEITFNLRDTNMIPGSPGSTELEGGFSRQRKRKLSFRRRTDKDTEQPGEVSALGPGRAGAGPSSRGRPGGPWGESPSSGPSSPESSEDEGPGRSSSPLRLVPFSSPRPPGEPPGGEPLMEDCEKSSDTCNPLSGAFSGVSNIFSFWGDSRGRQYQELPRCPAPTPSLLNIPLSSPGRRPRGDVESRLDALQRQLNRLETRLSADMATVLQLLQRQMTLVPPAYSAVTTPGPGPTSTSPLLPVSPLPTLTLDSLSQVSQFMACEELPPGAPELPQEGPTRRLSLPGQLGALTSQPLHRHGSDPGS
row,Compound,"hERG current change (%, negative = inhibition) at 10uM [%]"
1,N#CC(c1ccccc1)c1ccc2c(C(F)(F)F)cc(C(F)(F)F)nc2n1 (centres unmarked),16.2
2,CC(C)Cc1nc(Cl)c(C#N)c2c1CCC2,3.14
3,Cc1ccc(OCC(=O)Nc2ccc3c(c2)C(=O)NC3=O)cc1,7.54
4,CCOc1cc(/C=N/Nc2ccc(C(=O)O)cc2)ccc1OC(=O)c1ccccc1C,17.3
5,Cc1cc(C(=O)NNC(=O)c2ccc(Cl)cc2)no1,2.2
6,CCc1ccccc1NC(=O)c1cc(-c2cccc(O)c2)on1,12.7
7,COCCn1c(SCc2ccc(C)cc2)nc2c1c(=O)[nH]c(=O)n2C,1.22
8,O=C1c2ccccc2C(Nc2ccc(F)cc2F)N1CCN1CCOCC1 (centres unmarked),-0.0362
9,Cc1cccc2sc(N(CCCN(C)C)C(=O)c3ccc(S(=O)(=O)N4CCc5ccccc5C4)cc3)nc12.Cl,13.9
10,CCC(Oc1cc(Cl)ccc1Cl)C(=O)N1CCC2(CC1)OCCO2 (centres unmarked),4.7
11,CCN1C(=O)[C@H]2[C@@H](c3ccc(C)cc3)N3C(=O)N(c4cccc(F)c4)C(=O)[C@@]3(C)[C@H]2C1=O,3.13
12,Cc1c(O)c2cccnc2[nH]c1=O,16
13,Cc1cccc(CN2CCC(C(N)=O)CC2)c1,9.85
14,Cc1ccc(N=Cc2sccc2C)cc1C,9.89
15,Cc1csc(NC(=O)c2ccc(N3CCCC3=O)cc2)n1,17.9
16,O=C(NC1CC1)c1ccc(-c2nc3ccccc3s2)s1,10.7
17,COc1ccc(CN2CCN(S(=O)(=O)c3ccc(C)cc3)CC2)cc1OC,-0.531
18,COc1ccc(NC(=S)Nc2ccc(C)c(S(=O)(=O)N3CCCCC3)c2)cc1,-18.2
19,CCCCCOC(=O)C1=C(C)Nc2ncnn2C1c1cccs1 (centres unmarked),3.88
20,O=[N+]([O-])c1cccnc1Oc1ccc(F)cc1,1.14
21,O=C(Nc1ccc(S(=O)(=O)N2CCCC2)cc1)c1cccnc1Cl,-19.3
22,O=C(O)c1ccc(NS(=O)(=O)c2ccc3c(c2)OCCCO3)cc1,4.23

row,Compound,"hERG current change (%, negative = inhibition) at 10uM [%]"
1,CCCC(=O)N1CCN(c2ccc(NC(=O)c3cc4ccccc4o3)cc2)CC1,-13.4
2,CSc1ccc(CN(C)C(=O)CCNS(=O)(=O)c2ccc(C)c(C)c2)cc1,-21.3
3,Cc1cc(Cl)c(S(=O)(=O)N2CCN(c3ccc(F)cc3)CC2)cc1OCC(N)=O,9.9
4,Cc1ccc2cc3cc(C(=O)N4CCCCCC4)oc3nc2c1,-5.96
5,CC(NC(=O)C(=S)N1CCN(C)CC1)c1ccccc1 (centres unmarked),10.9
6,O=C(CN1C(=O)NC2(CCCCCC2)C1=O)c1ccc(OC(F)F)cc1OC(F)F,-35
7,COc1cc(CNC2CCCCC2)c(Br)cc1OC1CCCC1,-10.5
8,Cc1ccnc(SCC(=O)c2cccs2)n1,19.5
9,Cc1ccc(S(=O)(=O)c2nc(S(C)(=O)=O)sc2N(C)C)cc1,7.31
10,COc1ccc(C(c2nnnn2Cc2cccs2)N2CCC(C(N)=O)CC2)c(OC)c1 (centres unmarked),-8.49
11,CCc1c(O)nc(SCC(N)=O)n(-c2ccccc2F)c1=O,7.56
12,CCC(Cc1ccccc1)NC(=O)C1CC1 (centres unmarked),15.3
13,COc1ccc2c(CC(=O)Nc3c(C)n(C)n(-c4ccccc4)c3=O)coc2c1,14.8
14,COC(=O)c1ccc(S(=O)(=O)N2CCCCC2)o1,-1.96
15,CCOC(=O)C1=C(C)NC(=S)NC1c1ccc(OC(=O)c2ccco2)cc1 (centres unmarked),-1.02
16,C#CCOCCOCCOCCNc1nc(N2CCN(C(=O)[C@H]([C@@H](C)CC)n3cc([C@@H](N)CO)nn3)CC2)nc(N2CCN(C(=O)[C@H](Cc3cc4ccccc4[nH]3)n3cc([C@@H](N)Cc4ccc(O)cc4)nn3)CC2)n1.Cl,3.47
17,COc1cc(CC2C(=O)Nc3ccccc32)cc(C)c1O (centres unmarked),8.43
18,CCc1ccc(NC(=O)C2CCCN(S(=O)(=O)c3cccs3)C2)cc1 (centres unmarked),6.31
19,CCC(C)(C)C(=O)Nc1ccc(C(N)=O)cc1,0.733
20,CC(C)c1cc(C(=O)N/N=C/C(Br)=C/c2ccccc2)n[nH]1,9.49
21,Cc1ccc(C2(C)NC(=O)N(CC(=O)Nc3cc(S(=O)(=O)N4CCOCC4)ccc3C)C2=O)cc1 (centres unmarked),-19.6
22,COc1cccc(C(=O)Nc2nnc(-c3ccccc3)s2)c1,11.8
